Source: PubChem BioAssay AID493208 (National Center for Advancing Translational Sciences (NCATS), 2011)
The campaign covered roughly 44,000 compounds. About 340 (0.77%) were called active. Inconclusive results (about 5%) are left out. Calls follow the shape of the dose curve; as a rule, active = well fitted inhibition curve with a large enough effect; inconclusive = small, poorly fitted or top-dose-only effect; inactive = flat fitted curve, though single readings scatter. The list shows a part of the results.

Assay: Acumen qHTS Assay for Inhibitors of the mTORC1 Signaling Pathway in MEF (Tsc2-/-, p53-/-) Cells: Sytravon;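 also: plate controls were DMSO for no effect and rapamycin for full effect; nearly all actives have a fitted effect of over 50% in size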
Conditions: phospho-rpS6 immunofluorescence/PI, 24 h; series mostly up to 38.3 µM; activity change, negative = inhibition: at the top concentration
In short: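 Readout is phospho-S6 Alexa 488 signal normalized to PI per well, reported as % active cells with thresholds set from rapamycin (7.5 nM) and DMSO controls. Cells: Tsc2-/-, p53-/- MEFs, 24 hrs compound at 37 C; PI cell number serves as viability.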

Activity change, negative = inhibition, inactive:
CCOc1cc(CNC(=O)c2ccc3c(c2)N(C)C(=O)C2CCCCN32)ccc1OC (centres undefined) -9.17%
Cc1ccc(-n2ncc3c(NC4CCCCC4)ncnc32)cc1Cl 10.8%
COc1ccc(CNC(=O)CCCn2nc(C)c3c(C)n(-c4ccc(C)cc4)nc3c2=O)cc1OC -10.2%
CCN(c1ccccc1)c1nnc(NC(=O)Nc2ccc(Br)c(C)c2)s1 -1.15%
O=C(c1ccc2c(Cl)c3c(nc2c1)CCCC3)N1CCN(c2cccc(C(F)(F)F)c2)CC1 1.19%
O=C(CSc1nccn1Cc1ccco1)Nc1cc(C(F)(F)F)ccc1Cl -0.662%
O=C(CN1C(=O)COc2ccc(S(=O)(=O)N3CCCCCC3)cc21)N1CCN(c2ccccc2F)CC1 0.246%
CCOc1ccc(CNC(=O)CCS(=O)(=O)c2cc3c4c(c2)CCN4C(=O)CC3)cc1OC 9.83%
COc1ccc2nc(NC(=O)c3cc(=O)c4cc(C)cc(C)c4o3)sc2c1 -1.41%
COc1cc(OC)c(NC(=O)C2CCN(S(=O)(=O)c3ccc4c(c3)oc(=O)n4C)CC2)cc1Cl 8.3%
COc1ccc2c(CNCCc3cccs3)c(C(=O)O)n(Cc3cccc(F)c3)c2c1 3.32%
Cc1ccc(CNC(=O)CN2CCN(Cc3ccc(F)cc3Cl)C2=O)cc1 -0.502%
CCc1ccc(Nc2sc(C(=O)c3ccc(F)cc3)c(N)c2S(=O)(=O)c2ccccc2)cc1 -6.77%
COc1ccc(OC)c(NC(=O)CCNS(=O)(=O)c2ccc3c(c2)oc(=O)n3C)c1 -5.18%
Cc1ccc(-c2nc(CS(=O)CC(=O)NCCc3ccc(Cl)cc3)c(C)o2)cc1 (centres undefined) -7.64%
CC(CNC(=O)CCCn1c(=O)c2cccn2c2ccc(F)cc21)c1ccccc1 (centres undefined) 4.92%
Cc1cccc(C(=O)NNc2ncnc3c2cnn3-c2ccc(C)c(Cl)c2)c1 -1%
COc1cc(NC(=O)C2Cc3ccccc3N2C(=O)c2ccccc2)cc(OC)c1 (centres undefined) 13.2%
CCOc1ccc(-n2nc(CO)c(C(=O)NCC(C)O)n2)cc1 (centres undefined) 0.814%
COc1ccc(OCCn2nnc3sc4c(c3c2=O)CCCC4)cc1 -3.52%
COc1ccc(N2CCN(c3ncnc4c3nnn4C)CC2)cc1 -1.17%
CCOC(=O)c1c(C)[nH]c(C)c1S(=O)(=O)NCC(=O)NCc1ccccc1C 4.28%
CCOc1ccccc1CNS(=O)(=O)c1cc(-c2onc(C)c2C)ccc1OC -4.03%
CCOC(=O)C1CCN(c2ncnc3c2c(-c2ccccc2)cn3-c2ccc(Cl)cc2)CC1 6.25%
CCC(=O)N1c2ccccc2CC1C(=O)N1CCN(c2ccccc2F)CC1 (centres undefined) 0%
Cc1ccc(NC(=O)Cn2c(=O)n(CCCCC(=O)NCc3ccc4c(c3)OCO4)c(=O)c3ccccc32)cc1 1.16%
N#Cc1c(C(F)(F)F)cc(-c2cccs2)nc1SCc1ccccc1F 3.36%
Clc1ccccc1CSc1nc(NCCc2ccccc2)c2ccccc2n1 -3.46%
O=C(CSc1ncc2c(n1)-c1ccccc1N(Cc1ccc(Cl)cc1)S2(=O)=O)c1ccccc1 -12%
CCOc1ccccc1Nc1sc(C(=O)c2ccc(Cl)cc2)c(N)c1S(=O)(=O)c1ccccc1 1.2%
Cc1cccc(N2CCN(C(=O)c3ccc4c(c3)N(Cc3cccc(Cl)c3)C(=O)c3ccccc3S4(=O)=O)CC2)c1C 2.15%
CCN(Cc1ccccc1)C(=O)Cn1ncc2c(=O)oc3ccc(C)cc3c21 14.6%
CCOc1ccc(NC(=O)CCc2nnc3n(C)c(=O)c4sccc4n23)cc1 4.62%
CCC(C(=O)NC1CCCCC1)n1c(SCc2cccc(F)c2)nc2ccncc21 (centres undefined) -1.23%
COc1ccccc1NC(=O)Cn1ccn(-c2cc(C)cc(C)c2)c(=O)c1=O -0.974%
CC(CNC(=O)C1CCN(C(=O)c2cc3sccc3n2C)CC1)c1ccccc1 (centres undefined) -13.5%
Cc1ccc(Cl)cc1Nc1nn2c(=O)c3ccc(C(=O)NC(C)c4ccccc4)cc3nc2s1 (centres undefined) -11.6%
Cc1ccc(Cl)cc1N1CCN(C(=O)CCS(=O)(=O)c2ccc3c(c2)oc(=O)n3C)CC1 -8.17%
CCOc1cccc(NC(=O)C2CC(=O)N(C)C(=Nc3ccc(OC)cc3)S2)c1 (centres undefined) -8.14%
Cn1nc(C(=O)NCc2ccccc2)c2c1-c1ccccc1S(=O)(=O)C2 6.2%
COc1ccccc1CNC(=O)CCc1c(C)nn(-c2ccc(N3CCCCC3)nn2)c1C -6.8%
CCOc1ccc(-n2c(=O)c3c(C)c(C(=O)N(C)C)sc3n(Cc3cc(C)ccc3C)c2=O)cc1 0.652%
Cc1ccc(S(=O)(=O)C(CNC(=O)C(=O)NCc2ccc(Cl)cc2)c2ccco2)cc1 (centres undefined) -13.8%
CN(C(=O)CSc1nc2ccccc2n1Cc1ccccc1C#N)c1ccccc1 5.33%
O=c1c2sc3ccccc3c2n(Cc2ccc(F)cc2Cl)c(=O)n1Cc1ccccc1 0.393%
CCOc1ccccc1CNC(=O)c1oc2ccc3c(c2c1C)C(=O)CC(C)(C)O3 0.514%
Cc1ccc2oc(-c3ccc(C)c(NC(=O)c4ccc(-c5ccccc5[N+](=O)[O-])o4)c3)nc2c1 -0.971%
CCOc1ccc(S(=O)(=O)N(CC(=O)Nc2ccc3c(c2)OCO3)c2ccc(C)cc2)cc1 10.7%
COC(=O)c1ccc2nc(C)cc(Nc3cccc(Cl)c3C)c2c1 -19.5%
COCC(=O)Nc1c(C(=O)Nc2ccc(C)cc2)oc2ccccc12 2.23%
Cc1ccc(NC(c2nnc(-c3ccccc3)o2)c2ccccc2F)c(Cl)c1 (centres undefined) -11.7%
CCN(CC)S(=O)(=O)c1ccc(N2CCCCS2(=O)=O)cc1 0%
Cc1ccc(CNC(=O)CN2C(=O)CCc3cc(S(=O)(=O)N4CCCCC4)ccc32)cc1 0%
CCn1cc(S(=O)(=O)c2ccc(Cl)cc2)c(=O)c2cc(F)c(N3CCOCC3)cc21 -7.03%
COc1cc(CN(C(=O)c2ccc(Cl)cc2)C2CCS(=O)(=O)C2)cc(OC)c1OC (centres undefined) 4.75%
CCOC(=O)c1ccc(-c2ccc(/C=C(\C#N)C(=O)Nc3ccc(C)cc3)o2)cc1 5.44%
COc1cccc(C(=O)n2nc(-c3cccnc3)nc2NCc2ccc(F)cc2)c1 8.24%
CCN(CC)CCSc1nnc2c3cc(F)ccc3n(CC)c2n1 -19.9%
Cc1ccc(CCNC(=O)CCn2nc(-c3ccc(C)cc3)ccc2=O)cc1 -19.5%
COC(=O)c1ccc2c(=O)n(CCCCCC(=O)N3CCN(c4ccc(Cl)cc4)CC3)c(=O)[nH]c2c1 -1.55%
COc1ccccc1CNC(=O)Cn1c(=O)nc(-c2ccccc2)c2ccccc21 0%
CCCSc1nnc2c(n1)OC(c1cccs1)Nc1ccc(Br)cc1-2 (centres undefined) -1.35%
COC(=O)c1ccc(NC(=O)CN(Cc2ccccc2)S(=O)(=O)c2ccc(Cl)cc2)cc1 2.22%
Cc1c(Cl)cccc1NC(=O)Nc1ccc2snnc2c1 0.128%
Oc1c(C(c2ccccc2F)N2CCCC2)sc2nc(-c3ccco3)nn12 (centres undefined) -0.327%
O=C(NCCc1ccccc1)c1ccc(CS(=O)(=O)c2ccc(Cl)cc2)o1 -7.31%
CCCOc1ccccc1C1C(C(=O)Nc2ccccc2)=C(C)Nc2nnnn21 (centres undefined) 5.18%
CCc1ccc(N(CC)C(=O)Cn2cnc3sc(C)c(S(=O)(=O)N4CCN(c5ncccn5)CC4)c3c2=O)cc1 5.33%
Cc1cccc(S(=O)(=O)c2cn(C)c3cc(N4CCC(C)CC4)c(F)cc3c2=O)c1 -4.61%
CCC(=O)N1c2ccc(S(=O)(=O)CCC(=O)NCc3cccc(OC)c3)cc2CC1C (centres undefined) -1.12%
CC(=O)Nc1ccc(NC(=O)c2cc(-c3ccc4c(c3)OCCO4)on2)cc1 -7.33%
Cc1cccc(CSc2ccc(-c3cccs3)nn2)c1 -7.09%
O=C(NCc1ccccc1Cl)c1nnc(Cc2ccc(Cl)cc2)o1 4.48%
COc1ccc(-c2noc(CSc3nnc(C)n3-c3ccc(C)c(C)c3)n2)c(OC)c1 8.03%
COc1ccc(-c2nc(SCC(=O)NCCc3ccccc3)n[nH]2)cc1 2.81%
Cc1ccc2onc(CC(=O)N3CCN(c4ccccc4)CC3)c2c1 -6.97%
CCOc1ccc(NC(=O)C(C)n2c(=O)cc(C)c3c(C)nn(-c4ccccc4)c32)cc1 (centres undefined) -0.682%
CCc1ccc(OCC(=O)Nc2ccc3c(c2)c2ccccc2n3CC)c(Br)c1 0.0252%
N#C/C(=C\c1cc(Br)c(O)c(Br)c1)c1nc2ccccc2c(=O)[nH]1 2.78%
CCc1ccc(NC(=O)CSc2ncc(S(=O)(=O)c3cc(C)ccc3C)c(=O)[nH]2)cc1 -0.0149%
COc1ccc(CC(=O)NC2CC(=O)N(c3ccc(C)c(C)c3)C2)cc1OC (centres undefined) 4.13%
O=C(Cn1c(=O)oc2cc(S(=O)(=O)N3CCCCC3)ccc21)NCc1ccc(F)cc1 -1.58%
CC1CCN(c2nc3ccc(C(=O)NCCc4ccc(S(N)(=O)=O)cc4)cc3s2)CC1 3.65%
Cc1cccc2sc(N(Cc3cccnc3)C(=O)C3COc4ccccc4O3)nc12 (centres undefined) 0.929%
COc1ccc(-c2nc(Cn3c(SCc4ccccc4F)nc4cccnc43)c(C)o2)cc1 0%
Cc1ccc(CNC(=O)CN2C(=O)C3(SCC(=O)N3c3ccc(F)c(F)c3)c3ccccc32)cc1 (centres undefined) 8.72%
CCOC(=O)C(Cc1ccccc1)NC(=O)CCc1c(C)nc2c(c(C)nn2-c2ccc(C)c(C)c2)c1C (centres undefined) -9.49%
COC(=O)c1ccccc1NC(=O)C1CCCN(c2nnc(C)c3c(C)n(-c4ccccc4)nc23)C1 (centres undefined) -6.3%
COC(=O)c1c(NC(=O)c2ccc(S(=O)(=O)N(C)C3CCCCC3)cc2)sc2c1CCN(C)C2 -5.46%
O=C(CN1C(=O)CCc2cc(S(=O)(=O)N3CCCCC3)ccc21)NCc1ccc(Cl)cc1 13.2%
Cc1ccc(C)c(N2CCN(C(=O)CS(=O)(=O)c3cccc4nsnc34)CC2)c1 -6.06%
COc1ccc(OCC(=O)NCC(c2ccc(OC)cc2)N2CCOCC2)cc1 (centres undefined) -0.986%
Cc1cc(NC(=O)c2cnc3c(-c4ccccc4)c(C)nn3c2C)ccc1Br -3.42%
Cc1cc(NC(=O)C(C)(C)C)cc(-c2nc3ncccc3o2)c1O -5.42%
